Among all 310,000 compounds or so, about 2,200 (0.71%) showed an effect of 50% or more. The effect is printed as a negative number. The list shows a part of the results.
Molecular target: human ether-à-go-go-related gene (hERG) potassium channel (human, UniProt Q12809)
Experiment: primary screen, population patch clamp on CHO cells stably expressing hERG

human ether-à-go-go-related gene (hERG) potassium channel, sequence (Q12809 whole entry, looked up): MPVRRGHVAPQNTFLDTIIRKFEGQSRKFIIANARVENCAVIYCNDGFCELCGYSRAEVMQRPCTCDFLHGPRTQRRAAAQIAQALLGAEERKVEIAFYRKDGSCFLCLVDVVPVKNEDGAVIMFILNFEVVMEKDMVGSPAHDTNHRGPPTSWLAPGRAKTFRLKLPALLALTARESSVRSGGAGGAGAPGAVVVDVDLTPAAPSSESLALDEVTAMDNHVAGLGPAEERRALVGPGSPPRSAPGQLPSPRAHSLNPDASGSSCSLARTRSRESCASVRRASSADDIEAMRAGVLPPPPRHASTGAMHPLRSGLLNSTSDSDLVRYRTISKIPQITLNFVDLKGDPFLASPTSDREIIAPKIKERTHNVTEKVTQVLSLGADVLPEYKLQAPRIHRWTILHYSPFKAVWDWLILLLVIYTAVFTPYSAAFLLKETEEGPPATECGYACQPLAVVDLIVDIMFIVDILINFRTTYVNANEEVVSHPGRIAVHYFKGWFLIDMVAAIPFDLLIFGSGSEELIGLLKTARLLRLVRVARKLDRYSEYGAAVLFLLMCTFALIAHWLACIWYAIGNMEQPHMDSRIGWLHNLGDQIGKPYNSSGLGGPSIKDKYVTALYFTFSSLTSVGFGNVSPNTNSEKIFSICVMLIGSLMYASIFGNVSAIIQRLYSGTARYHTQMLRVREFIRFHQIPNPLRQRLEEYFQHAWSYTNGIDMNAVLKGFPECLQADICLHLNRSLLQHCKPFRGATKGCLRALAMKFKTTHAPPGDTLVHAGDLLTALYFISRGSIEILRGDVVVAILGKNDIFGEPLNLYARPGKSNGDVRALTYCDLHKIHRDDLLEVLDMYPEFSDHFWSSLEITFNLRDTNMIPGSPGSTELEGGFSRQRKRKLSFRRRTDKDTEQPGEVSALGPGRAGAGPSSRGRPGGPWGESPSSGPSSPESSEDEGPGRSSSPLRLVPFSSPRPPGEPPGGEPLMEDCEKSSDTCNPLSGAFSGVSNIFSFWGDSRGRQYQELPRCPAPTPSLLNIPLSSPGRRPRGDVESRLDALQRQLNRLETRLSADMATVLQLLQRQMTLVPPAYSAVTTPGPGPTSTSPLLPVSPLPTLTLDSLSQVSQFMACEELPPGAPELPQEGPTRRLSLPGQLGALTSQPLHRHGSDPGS

Structure (SMILES)	hERG current change (%, negative = inhibition) at 1uM [%]
Cc1ccccc1NC(=O)c1ccc(Cl)c(NC(=O)c2cccnc2)c1	12.9
Cc1ccccc1OCC(=O)Nc1ccc(S(=O)(=O)Nc2ccccn2)cc1	3.67
COc1ccccc1CNS(=O)(=O)c1c(C)[nH]c(=O)[nH]c1=O	12.4
Cc1ccccc1C(=O)NNC(=S)NC(=O)c1ccccc1	15.5
CSCCC(NS(=O)(=O)c1ccc(C)cc1)C(=O)N1CCN(C(c2ccccc2)c2ccccc2)CC1 (stereo not shown)	14
COc1ccc(N2CCc3c(C)nc(SC)nc32)cc1	10.3
COc1ccc(COC(=O)c2c(C)nn(-c3ccccc3)c2Cl)cc1	1.94
CNC(=O)CCSSCCC(=O)NC	17
O=C1C(Cl)=C(NCc2cccnc2)C(=O)c2ccccc21	16.8
CN1CCN(c2ccc3nccnc3c2)CC1	9.48
O=C(CSc1nccn1Cc1ccccc1)NCc1ccccc1	9.71
O=C(NC1CSCC1OC(=O)c1ccccc1)c1ccccc1 (stereo not shown)	0.285
CC(/C=N/NC(=O)C(O)c1ccccc1)=C\c1ccccc1 (stereo not shown)	-2.26
Cc1c(N2C(=O)/C(=C/C3CC=CCC3)SC2=S)c(=O)n(-c2ccccc2)n1C (stereo not shown)	6.64
Cn1c(Cc2ccc3c(c2)OCO3)nnc1SCC(=O)NC1CCCC1	9.47
CC(CN1CCCCC1)c1ccccc1.O=C(O)C(=O)O (stereo not shown)	14.1
CCOc1ccc(NC(=O)CNC(=O)c2nn(-c3ccc(OC)cc3)c(=O)c3ccccc23)cc1	15.7
O=C(NCCCNCc1ccccc1)c1ccc(/C=N/O)nc1	6.96
CCN(CC(=O)Nc1c(F)cccc1F)C(=O)CNC(=O)c1ccc2c(c1)OCO2	-3.06
Cc1cn(C(=O)C(C)N2C(=O)c3ccccc3C2=O)c(C)n1 (stereo not shown)	6.51
Cn1c(N)c(S(=O)(=O)NCc2ccc(Cl)cc2)c(=O)n(C)c1=O	20.9
Cc1nnc(SCC(=O)N2CCOCC2)n1C	10.1
COc1ccc(NC(=O)NC(C)c2ccncc2)cc1OC (stereo not shown)	2.22

Structure (SMILES)	hERG current change (%, negative = inhibition) at 1uM [%]
CN(CCOc1ccccc1)C(=O)c1ccc(OC2CCN(C(=O)C3CC3)CC2)cc1	3.45
CN(Cc1ccccc1)C(=O)COC(=O)c1cc(-c2ccc(Cl)s2)nc2ccccc12	-17.9
O=C(Nc1ccc(CN2CCCCC2)cc1)c1cccc(Br)c1	-17.8
CCOc1ccc(CCNC(=O)CSc2cc(=O)n(C)c3cc(Cl)ccc23)cc1OCC	11.6
COc1ccc(C(=O)Cn2c(NCCCl)nc3ccccc32)cc1.Cl	4.71
CCOc1ccc(C2CC(=O)NC(SC)=C2C#N)cc1 (stereo not shown)	14.3
COc1ccc(OC)c(C(=O)c2ccc(C(=O)O)cc2)c1	-4.18
C[C@@H]1CC=C[C@H]2[C@H]1C(=O)N(Cc1ccccc1)[C@H]2c1ccc2ccccc2c1/C=C/c1ccccc1	12.4
Cc1ccc(S(=O)(=O)NCc2ccncc2)cc1C	11.9
C/C(N)=C(/C#N)C(=O)CSc1nnc(Cc2ccccc2F)n1N	9.15
O=C1CSC(c2ccccc2)N1c1ccc([N+](=O)[O-])cc1 (stereo not shown)	3.28
Cc1ccc(NC(=O)C2CCCN(C(=O)c3ccc(Cl)cc3)C2)cc1S(=O)(=O)N1CCOCC1 (stereo not shown)	2.85
O=C(CSCc1ccc(Cl)cc1)Nc1ccc(-c2nnc(-c3ccccc3)o2)cc1	4.79
Cc1c(C)c(C)c(C(=O)C2CCN(c3ccc([N+](=O)[O-])cn3)CC2)c(C)c1C	10.1
Cc1nc2ccccc2nc1N1CCC(C)CC1	3.15
CCC(=O)N1CCN(c2ccc(NC(=O)c3ccccc3)cc2)CC1	5.42
COc1ccc(C(=O)NCCCCc2ccccc2)cc1	5.08
CCCCOc1ccc(C2CC(=O)N(C)C2=O)cc1 (stereo not shown)	-1.98
COc1ccc(C(=O)c2c3ccc([N+](=O)[O-])cc3[n+]([O-])n2CCCC(N)=O)cc1	-5.98
CCN(CC)S(=O)(=O)c1cccc(N=NC2=C(O)CCCC2=O)c1	-2.57
O=C(CCn1c(=O)oc2ccccc21)NCc1cccs1	17.2
COc1ccc(C)cc1NC(=O)C(NC(=O)c1cc(OC)c(OC)c(OC)c1)C(C)C (stereo not shown)	13.5
CCc1nnc(NC(=O)CSc2nc3c(cc2C#N)CCC3)s1	5.06

From paper PMC4336329 (PLoS ONE, 2015)
